Assay results taken from the supplement of paper PMC11417369.
This is one part of the list.

These sequences were tested on PfSIP2 AP2 domain 1 (GST-tagged) (assay: gcPBM binding intensity (ln(normalized median fluorescence intensity)); higher = stronger DNA binding).
How it was run: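 An Agilent 4 × 180k array carrying primer-extended double-stranded 36-bp intergenic genomic probes and negative controls received GST-tagged P. falciparum DNA-binding domains expressed in E. coli, about 25 μg on average, for 1 h. The binding buffer contained 1× PBS, 1% milk, 0.2 mg/ml BSA, 0.5% salmon testes DNA and 0.03% Triton X-100. Binding intensity is the top Masliner-normalised natural-log median intensity across replicate spots of either probe orientation, read after Alexa488 anti-GST antibody staining and a 488 nm scan.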

Sequence	gcPBM binding intensity (ln)
ATATATATATATATTGCACACATATAAATATATATA [CACACA_site8167]	9.22
GAAAAATTTAATTATTGTACGTTTCATCTATATTTA [XGTACX_site414]	6.91
TTTTTGTTTTTTTTGTGTACTTATCAAATATATATA [XGTACX_site7273]	7.49
CAAAAAAAATTATACACACACACACCCATATATATA [CACACA_site1044]	7.54
AAGAAAATTAACCCATGTACTTATGTAGATAGCAAG [XGTACX_site1049]	7.25
TACTATATATTATATAGTACATAAGATATACAACAT [XGTACX_site2929]	7.17
TAAAACTTAATATAAACACACAAAAATTAATAAATA [CACACA_site4370]	6.81
CAATATTATAGATATACACACATAATGTGTAAAAAC [CACACA_site6631]	6.8
ATAAATAGTATTATATGTACACATAATATTTATAAA [XGTACX_site4751]	7.28
AAAAATGGTGTTAACACACACATATATATATATATA [CACACA_site571]	9.76
TTTCTCTCTTATAAAATACACACGAACAATCATATT [CACACA_site509]	7.11
TATAATTATGATGATAGTACGTATGAGTTCAAAACA [XGTACX_site4211]	6.97
CACATTTTTTAAATATTTTTCTACTCCATAATGTTT [CACACA_negctrl_site557]	7.1
TTAATATAGGGAAAAAAAAGAAAATCGAAAATGTGT [CACACA_negctrl_site834]	6.96
ATAGTTACACGCCAAAAAAAAAAAAAAAAAAAAAAA [CACACA_negctrl_site1133]	7.09
TTAAAATGATTGTTACTTTTTTTTCCGTTTTCTTAA [CACACA_negctrl_site1195]	6.54
TAACTTCAAAAATCTTGTACATAAATATATAAAACA [XGTACX_site8574]	7.02
AATTTTGTCCTATGTTGTACTATTTTGCTCTATTTT [XGTACX_site7139]	7.07
GTTTATATATTATAAAGTACATATGAATTTAATAAT [XGTACX_site3601]	7.14
AAAAAATAAATAAACATAAATAAATAAATAAATATA [XGTACX_negctrl_site340]	6.71
ATTTCAAAATATAGCTGTACAAAAAATGTAGATATA [XGTACX_site5843]	7.13
GATCATTCTAAATATAAACACACATAAATATATACA [CACACA_site9108]	7.02

Sequence	gcPBM binding intensity (ln)
ATAATATAATAATATTGTACATGGTCAAATATGAAA [XGTACX_site8390]	7
CTTAAAAAAATATATTGTACATATATATATACAACT [XGTACX_site1281]	7.25
TATATTCCCATATAACGTACATATGAGACACCAACT [XGTACX_site8099]	7.09
ATATAAGTACCTATAACACACATATATTATAAGTAT [CACACA_site7281]	7.04
TAGAATAAATTAATTACACACGGAATTATATATATA [CACACA_site1616]	7.83
TATCATATATTATAGCGTACTTATTTATTTATTTAT [XGTACX_site1676]	6.97
TATAATAGTTCATAGGTGCAATATAATAAATTTATA [GTGCAC_site9573]	9.98
AAAAAAAAAAAAAAAAGTACATGAAAAAAAGAAGAA [XGTACX_site8384]	7.8
TTTTTTTTTTAGTATGAACACACATATATATTATAA [CACACA_site8957]	6.88
ATAAAACTTATTTAACGTACATATTTTATATACCTT [XGTACX_site5353]	7.04
TATAAAATAAATAACAAAAAAAATAAAATAAAAATA [TGCATGCA_negctrl_site297]	6.63
AAAAAATACATCAAAAGAAACATATATATATATATA [GTGCAC_negctrl_site719]	9.67
AATGGTTATAATATATGTACATATAAATATACTGAA [XGTACX_site8533]	7.08
TATAGCAAAATATTCACACAAACTATTAATAAAAGT [CACACA_site5795]	7.05
TATATTTATAAATGAACACACACGCAATTTGAATCG [CACACA_site3370]	7.24
CTGTATTTATTTTTCTGTACCAAATCACCCCTTGTA [XGTACX_site395]	7.1
TACGTTTTATGACACACACACAAAAAAAAAAAAAAA [CACACA_site7764]	7.07
GATGTATAAAATAATACATGCATGTCCTACATATAT [TGCATGCA_site155]	6.89
TTTCTTTTTCGATATACACACTGTATGTGTCTAAAA [CACACA_site6054]	6.85
TTTCCGGTAATATGGAAATATATGTGGGTTTTTTTT [CACACA_negctrl_site1536]	6.71
ACTATTTTAAAAATATGTACATACGTTGTAATTTAA [XGTACX_site7999]	7.23
CGAAGGATAAACATACGTACATATATGTGTATAATA [XGTACX_site779]	6.92
